Where “and” joins values, the source holds several entries; their conditions need not be identical. Equal entries are not always repeated. In all, about 360,000 compounds went through this assay and about 16,000 (4.4%) were called active. Inconclusive means that the source gave no clear call. Such entries were picked first, then a sample of the others. Calls follow the shape of the dose curve; as a rule, active = well fitted inhibition curve with a large enough effect; inconclusive = small, poorly fitted or top-dose-only effect; inactive = no such curve, though single readings can be large or run the other way. Potencies beside an inconclusive call are fits to weak or partial responses and may not hold up. More than one record can exist for a structure, and the calls need not agree.
These molecules were tested against Bromodomain adjacent to zinc finger domain protein 2B (Homo sapiens) (UniProt Q9UIF8) (assay: qHTS Assay for Inhibitors of BAZ2B). Details: AlphaScreen BAZ2B-H3K14Ac peptide displacement; series mostly up to 114 µM.
Procedure, shortened: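 In this displacement format the biotinylated H3(5-23) peptide acetylated at Lys14 serves as ligand at 50 nM, with BAZ2B at 50 nM in PBS pH 7.4 containing 0.01% Tween-20. Donor and acceptor beads are 10 ug/mL final.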
Also: nearly all actives have a fitted effect of over 60% in size.
Potency is read from the fitted curve at half-maximal effect; tags tell the direction and shape of the fitted curve.

Chain of UniProt Q9UIF8 (Q9UIF8 whole entry, looked up, the tested form may be a part): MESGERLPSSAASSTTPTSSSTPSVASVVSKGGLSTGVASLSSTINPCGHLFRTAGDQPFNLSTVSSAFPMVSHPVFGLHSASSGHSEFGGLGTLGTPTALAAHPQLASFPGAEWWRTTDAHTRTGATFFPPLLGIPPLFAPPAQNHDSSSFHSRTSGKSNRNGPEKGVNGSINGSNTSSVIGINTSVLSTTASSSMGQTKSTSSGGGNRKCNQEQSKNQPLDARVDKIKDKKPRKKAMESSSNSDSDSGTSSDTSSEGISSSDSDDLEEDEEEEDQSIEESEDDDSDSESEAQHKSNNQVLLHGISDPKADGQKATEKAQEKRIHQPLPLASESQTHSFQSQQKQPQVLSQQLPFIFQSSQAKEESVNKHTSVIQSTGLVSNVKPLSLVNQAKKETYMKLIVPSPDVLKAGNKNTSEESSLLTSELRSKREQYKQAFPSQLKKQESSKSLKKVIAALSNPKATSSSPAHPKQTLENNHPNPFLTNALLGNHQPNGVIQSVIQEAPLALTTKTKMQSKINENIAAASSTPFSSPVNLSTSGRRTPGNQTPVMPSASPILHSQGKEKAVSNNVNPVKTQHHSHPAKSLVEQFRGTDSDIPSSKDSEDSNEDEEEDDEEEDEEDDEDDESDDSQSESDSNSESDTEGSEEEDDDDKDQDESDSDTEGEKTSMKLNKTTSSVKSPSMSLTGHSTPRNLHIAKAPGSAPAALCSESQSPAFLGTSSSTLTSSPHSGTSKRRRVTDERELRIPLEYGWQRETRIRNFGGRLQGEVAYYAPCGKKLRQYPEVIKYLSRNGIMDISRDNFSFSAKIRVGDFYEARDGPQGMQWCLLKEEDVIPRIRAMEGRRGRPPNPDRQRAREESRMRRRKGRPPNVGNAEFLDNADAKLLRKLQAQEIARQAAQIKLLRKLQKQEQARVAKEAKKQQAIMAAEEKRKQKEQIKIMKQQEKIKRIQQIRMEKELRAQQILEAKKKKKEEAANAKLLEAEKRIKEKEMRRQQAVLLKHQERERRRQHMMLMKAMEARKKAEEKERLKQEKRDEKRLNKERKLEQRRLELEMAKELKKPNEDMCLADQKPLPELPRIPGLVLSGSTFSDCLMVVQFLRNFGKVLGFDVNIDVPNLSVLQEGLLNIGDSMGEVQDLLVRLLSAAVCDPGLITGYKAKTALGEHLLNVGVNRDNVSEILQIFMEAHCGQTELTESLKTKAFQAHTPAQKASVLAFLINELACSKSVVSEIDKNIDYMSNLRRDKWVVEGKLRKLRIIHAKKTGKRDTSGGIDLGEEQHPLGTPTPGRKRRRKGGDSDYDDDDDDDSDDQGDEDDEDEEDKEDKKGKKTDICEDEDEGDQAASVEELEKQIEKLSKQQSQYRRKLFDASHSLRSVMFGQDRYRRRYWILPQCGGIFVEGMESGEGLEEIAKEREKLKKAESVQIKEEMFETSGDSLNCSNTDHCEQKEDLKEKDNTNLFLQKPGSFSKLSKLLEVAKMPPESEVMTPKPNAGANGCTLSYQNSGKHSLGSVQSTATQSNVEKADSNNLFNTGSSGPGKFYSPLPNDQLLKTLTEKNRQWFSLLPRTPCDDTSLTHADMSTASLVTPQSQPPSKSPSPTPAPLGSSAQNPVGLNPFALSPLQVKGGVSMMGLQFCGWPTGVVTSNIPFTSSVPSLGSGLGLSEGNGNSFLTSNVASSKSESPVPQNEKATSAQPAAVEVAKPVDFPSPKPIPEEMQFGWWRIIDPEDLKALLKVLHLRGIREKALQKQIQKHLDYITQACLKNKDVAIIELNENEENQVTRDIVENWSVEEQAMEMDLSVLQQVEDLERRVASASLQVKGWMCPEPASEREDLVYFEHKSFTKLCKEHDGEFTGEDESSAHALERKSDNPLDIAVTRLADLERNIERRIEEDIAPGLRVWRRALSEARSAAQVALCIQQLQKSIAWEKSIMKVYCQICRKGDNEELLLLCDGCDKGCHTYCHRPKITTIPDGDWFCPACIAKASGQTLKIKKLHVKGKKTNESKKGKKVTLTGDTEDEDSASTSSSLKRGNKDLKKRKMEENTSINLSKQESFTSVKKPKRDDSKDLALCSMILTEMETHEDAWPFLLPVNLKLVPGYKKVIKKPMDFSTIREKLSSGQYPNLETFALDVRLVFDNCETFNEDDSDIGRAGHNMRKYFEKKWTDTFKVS

SMILES | Potency
OC(CN(c1ccccc1)c1ccccc1)Cn1cnc2ccccc21 (stereo not drawn) | inconclusive: 50.1 µM [inhibitor, partial curve]
O=C(CSCc1ccccc1)NCc1ccc2c(c1)OCO2 | inconclusive: 89.1 µM [inhibitor, single point]
CCOC(=O)c1c(C)[nH]c(O)c1C=Nc1ccc(Cl)cc1 | inactive
CCCNC(=O)c1ccc(N2CCC3(CC2)CC(c2cccc(Br)c2)=NO3)c(NC(=O)c2c(Cl)cccc2Cl)c1 | inconclusive: 89.1 µM [inhibitor, single point]
O=C(NCc1ccc2c(c1)OCO2)c1nc(S(=O)(=O)Cc2ccccc2F)ncc1Cl | inactive
COc1cc(C(=O)COC(=O)c2cnc(C)cn2)ccc1OC(F)F | inconclusive: 89.1 µM [inhibitor, partial curve]
Cc1ccc(-n2ccnc2SCC(=O)c2c(N)n(C3CC3)c(=O)[nH]c2=O)cc1C | inactive
COc1cc2c(cc1OC)C(COc1ccc(F)cc1)N(C(=O)c1ccc(S(=O)(=O)N3CCCC3)cc1)CC2 (stereo not drawn) | inactive
COc1cc(C2CC(=O)N(Cc3ccc(F)cc3)c3ccccc3S2)cc(OC)c1OC (stereo not drawn) | inconclusive: 70.8 µM [inhibitor, single point]
CCN1CCN(CCCNC(=O)c2ccc3c(c2)NC(=O)/C(=C\c2cccc(C)c2)S3)CC1 | inconclusive: 31.6 µM [inhibitor, partial curve]
COc1ccc(-c2cc(C(=O)NCCCn3ccnc3)no2)cc1 | inconclusive: 79.4 µM [inhibitor, partial curve]
O=C(OC1CCCCC1)c1ccc2c(c1)C1C=CCC1C(C(=O)O)N2 (stereo not drawn) | active: 7.08 µM
COc1cc(N2C(=O)CSC23C(=O)N(Cc2ccc(C)cc2)c2ccccc23)cc(OC)c1OC (stereo not drawn) | inconclusive: 89.1 µM [inhibitor, single point]
Cc1[nH]n(-c2ccccc2)c(=O)c1N=Nc1nccs1 | active: 31.6 µM
NC(=O)c1cccc2c1C(=O)N(C1CCCCC1)C2 | inconclusive: 89.1 µM [inhibitor, single point]
CCn1c(SCC(=O)N/N=C(\C)c2ccco2)nnc1-c1ccccc1 | inactive
COc1cc2c(cc1OC)C(COc1ccc(C(C)C)cc1)N(C(=O)c1ccc(S(=O)(=O)N3CCCC3)cc1)CC2 (stereo not drawn) | inactive
Cc1ccc(NC2CCCN(C(=O)CCC3(C)CC3)C2)cc1C (stereo not drawn) | inconclusive: 50.1 µM [inhibitor, partial curve]
CCCCn1cc2c(c1-c1cccc(C)c1)c(=O)n(C)c(=O)n2C | inconclusive: 79.4 µM [inhibitor, single point]
Oc1ccc(O)c(/C(=N/Nc2ccccc2)c2ccccc2)c1 | active: 44.7 µM
COc1ccc(-c2nc(-n3c(C)c(C(C)=O)c(C(C)=O)c3C)sc2C)cc1 | inconclusive: 12.6 µM [inhibitor, partial curve]
CC(=O)C1=C(O)C(=O)N(CCCN2CCOCC2)C1c1ccccc1[N+](=O)[O-] (stereo not drawn) | inconclusive: 89.1 µM [inhibitor, single point]

SMILES | Potency
O=C(Nc1nnc(S(=O)(=O)N2CCCC2)s1)c1ccccc1Br | inactive and active: 7.08 µM
Clc1ccc(SCCn2ccnc2)cc1 | active: 56.2 µM
COc1cccc(/C=C/C(=O)c2cccc([N+](=O)[O-])c2)c1 | inconclusive: 28.2 µM [inhibitor, partial curve]
CCOc1ccc(NC(=O)COC(=O)c2ccc3ncsc3c2)cc1OCC | inconclusive: 100 µM [inhibitor, single point]
CCOC(=O)c1c(NC(=O)CSc2n[nH]c(-c3ccco3)n2)sc(C)c1C | inconclusive: 39.8 µM [inhibitor, full curve]
O=[N+]([O-])c1ccccc1CNC1CCCCCC1 | inconclusive: 79.4 µM [inhibitor, partial curve]
O=c1c2nccnc2[nH]c(=S)n1Cc1ccccc1Cl | inconclusive: 89.1 µM [inhibitor, single point]
O=C(Cn1cc(SCc2ccccc2)c2ccccc21)N1CCCCC1 | inconclusive: 70.8 µM [inhibitor, single point]
O=S(=O)(Nc1cccc2cccnc12)c1ccccc1 | inconclusive: 89.1 µM [inhibitor, single point]
Nc1c(N=Nc2ccccc2F)c(=O)[nH]n1-c1ccccc1 | inconclusive: 50.1 µM [inhibitor, partial curve, poor fit]
Cc1cccc(N(C)S(=O)(=O)c2ccc3c(c2)CCC(=O)N3)c1 | inconclusive: 63.1 µM [inhibitor, partial curve, poor fit]
NC(=O)c1ccccc1OCC(=O)O | inconclusive: 89.1 µM [inhibitor, single point]
Cc1c(CCC(=O)O)c(=O)oc2c(C)c3occ(-c4ccc(Br)cc4)c3cc12 | active: 56.2 µM
CCOC(=O)C(NCc1ccccc1)(NC(=O)c1ccccc1)C(F)(F)F (stereo not drawn) | inconclusive: 39.8 µM [inhibitor, single point]
COc1ccc(N2CCN(C(=O)COCC(=O)O)CC2)cc1 | inconclusive: 1.58 µM [inhibitor, full curve, poor fit]
COCCNC(=S)N1CCN(c2nc(-c3ccc(F)cc3)cs2)CC1 | inconclusive: 50.1 µM [inhibitor, partial curve]
COc1ccc(OC)c(NC(=O)CCc2c(C)nn(-c3ccc(N4CCCC4)nn3)c2C)c1 | inconclusive: 50.1 µM [inhibitor, partial curve, poor fit]
Cc1ccc(N2CC(NC(=O)c3ccc(S(=O)(=O)N4CCCC4)cc3)CC2=O)cc1 (stereo not drawn) | inactive
CC(C)(C)C1CCc2c(sc(NC(=O)C3CCCO3)c2C(N)=O)C1 (stereo not drawn) | inconclusive: 70.8 µM [inhibitor, single point]
Cc1cccc(-n2ccc(=O)c(C(=O)Nc3ccc(S(=O)(=O)Nc4nccc(C)n4)cc3)n2)c1 | inconclusive: 79.4 µM [inhibitor, single point]
Cc1ccccc1Nc1c(-c2ccc(Cl)s2)nc2c(C)cccn12 | inconclusive: 31.6 µM [inhibitor, partial curve]

From PubChem BioAssay AID504333 (National Center for Advancing Translational Sciences (NCATS), 2011)
